Test results reported in PubChem BioAssay AID360 (National Center for Advancing Translational Sciences (NCATS), 2006).
About 550 (1.1%) of roughly 48,000 compounds were called active. Roughly 4% stayed inconclusive and do not appear here. Cut-off read from the data, not from the text of the source: active = potency below about 15 µM; inconclusive = mostly about 16 µM to 33 µM; inactive = weaker than that. The list shows a part of the results.

Biological target: Lysosomal acid glucosylceramidase (Homo sapiens) (UniProt P04062)
Chain of UniProt P04062 (P04062 whole entry, looked up): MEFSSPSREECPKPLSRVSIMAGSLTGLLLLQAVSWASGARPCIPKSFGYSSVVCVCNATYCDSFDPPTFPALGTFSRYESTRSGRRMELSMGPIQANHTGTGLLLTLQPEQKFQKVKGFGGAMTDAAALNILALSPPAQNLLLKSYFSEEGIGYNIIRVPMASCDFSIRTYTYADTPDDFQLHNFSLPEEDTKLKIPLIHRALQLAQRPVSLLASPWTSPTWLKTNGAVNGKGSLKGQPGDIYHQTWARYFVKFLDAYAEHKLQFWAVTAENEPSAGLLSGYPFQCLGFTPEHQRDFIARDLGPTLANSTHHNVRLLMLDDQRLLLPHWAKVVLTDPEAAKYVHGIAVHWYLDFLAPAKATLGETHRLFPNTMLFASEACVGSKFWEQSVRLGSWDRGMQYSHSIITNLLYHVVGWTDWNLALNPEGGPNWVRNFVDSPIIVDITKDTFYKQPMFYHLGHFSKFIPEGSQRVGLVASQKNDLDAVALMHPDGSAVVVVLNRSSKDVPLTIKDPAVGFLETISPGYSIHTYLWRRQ
Experiment: Glucocerebrosidase;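 note: the screen sought inhibitors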
Settings: purified enzyme, resorufin glucoside fluorescence (screen aimed at inhibitors), 20 min
Summary of the method: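 Normal human glucocerebrosidase (0.2 nM final) was assayed with resorufin β-D-glucopyranoside (30 uM final) in 50mM citric acid/KH2PO4, 10mM sodium taurocholate, 0.01% tween-20, pH 5.9. Compounds were titrated; fluorescence (Ex 548, Em 600) read after 20 min at RT.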
Potency is the fitted concentration of half-maximal effect.

Potency, inactive:
CCN(Cc1ccccc1)S(=O)(=O)c1ccc2oc(C(=O)O)c(C)c2c1 > 76.9 µM, COC(=O)c1sc2nc3c(cc2c1N)C(=O)CC(C)(C)C3 > 76.9 µM, Cc1cccc(NC(=O)CCN2CCN(C/C=C/c3ccccc3)CC2)c1 > 76.9 µM, Cc1ccc(C)c(NC(=O)CSc2nnc(-c3ccccc3C)o2)c1 > 76.9 µM, CCOC(=O)/C(C#N)=C1/CCCCCN1C > 76.9 µM, COc1ncnc2c1N[C@@](C)(O)c1c(F)c(F)c(F)c(F)c1S2 > 76.9 µM, COc1ccccc1NC(=O)Nc1c(C)n(C)n(-c2ccccc2)c1=O > 76.9 µM, Cc1nc(-c2ccccc2)nc2[nH]c(=O)n(-c3ccccc3)c(=O)c12 > 76.9 µM, COc1ccc(C2C(C(=O)Nc3cccc(C)n3)CCC(=O)N2c2ccc(OC)cc2)cc1 (stereo not drawn) > 76.9 µM, COc1ccc(-c2[nH]nc3oc(=O)cc(C)c23)cc1 > 76.9 µM, CCOC(=O)N1CCN(c2cc(=O)n(-c3ccc(OC)cc3)c(=O)[nH]2)CC1 > 76.9 µM, COc1ccc(Cc2nnc(SCc3nc4ccccc4c(=O)[nH]3)o2)cc1 > 76.9 µM, COc1ccc2cc3cc(C(=O)NCCN4CCN(Cc5ccccc5)CC4)oc3nc2c1 > 76.9 µM, CC12CC(NC(=O)N1c1cccc(C(=O)N3CCN(c4ccccc4)CC3)c1)c1ccccc1O2 (stereo not drawn) > 76.9 µM, Cc1cc(NC(=O)c2noc3c2CCCCC3)no1 > 76.9 µM, CCN1C(=O)/C(=C\N2CCCc3ccccc32)SC1=S > 76.9 µM, COc1ccc(-c2nnc3sc(CCN4C(=O)c5ccccc5C4=O)nn23)cc1, COc1cc2c(cc1OC)CN(C(=O)Cc1ccc(OC)c(S(=O)(=O)N3CCOCC3)c1)CC2 > 76.9 µM, COc1ccc(OC)c(C(=O)COC(=O)CNC(=O)C2CCCCC2)c1 > 76.9 µM, Cc1ccccc1Nc1nnc(C)c(=O)[nH]1, CCOC(=O)C1=C(C)NC(=O)NC1c1c(C)nn(-c2ccccc2)c1Cl (stereo not drawn) > 76.9 µM, CC1CCN(c2oc(Cc3cccc4ccccc34)nc2C#N)CC1 > 76.9 µM, CC(C)C[C@H](N)c1nnc(S(=O)(=O)Cc2ccc(F)cc2)o1 > 76.9 µM, Cc1ccccc1-n1c(C)nnc1SCC(=O)NCC1CCCO1 (stereo not drawn) > 76.9 µM, N#Cc1nc(-c2ccccc2Cl)oc1NCc1ccco1 > 76.9 µM, CCC1CCCCN1C(=O)CSc1nnc(-c2c[nH]c3ccccc23)o1 (stereo not drawn) > 76.9 µM, Cc1cc(C)n(-c2nc3ccccc3n3nnnc23)n1 > 76.9 µM, COc1ccc(-c2cc(C(=O)Nc3cnn(Cc4ccccc4C)c3)no2)cc1OC > 76.9 µM, N#Cc1c(-c2ccco2)cc(-c2ccc(F)cc2)nc1N > 76.9 µM, COc1ccc(CC(=O)OCc2cc3ccc(C)cc3[nH]c2=O)cc1 > 76.9 µM, OC1C[N+]2(CCCCC2)C1 > 76.9 µM, O=C(NCCN1CCCCC1)c1c(O)c2ccccc2[nH]c1=O, CCCNS(=O)(=O)c1ccc(CCC(=O)Nc2ccc3c(c2)OCO3)cc1 > 76.9 µM, CCOC(=O)c1[nH]c2ccc(OCC)cc2c1NC(=O)CN1CCC2(CC1)OCCO2 > 76.9 µM, Cc1cnc(NC(=O)CSc2nnc(CNc3ccc(F)cc3)n2CC2CCCO2)s1 (stereo not drawn) > 76.9 µM, C=CCc1cc(C)cc(C)c1OCCn1cncn1 > 76.9 µM, C=CCn1c(=N)n(CC(=O)OC)c2ccccc21 > 76.9 µM, Cc1cc2ccccc2n1CCNC(=O)C1CCCC1 > 76.9 µM, O=C(O)C1C2C=CC(C2)C1C(=O)Nc1cccc(F)c1 (stereo not drawn) > 76.9 µM, Cc1c(NC(=O)C2CCCN2C(=O)c2cccs2)c(=O)n(-c2ccccc2)n1C (stereo not drawn) > 76.9 µM, O=C(CCCn1nnc(-c2cccnc2)n1)c1ccc(F)cc1 > 76.9 µM, COc1c(C)cc(Br)cc1C(=O)Nc1ccc(N2CCN(S(C)(=O)=O)CC2)cc1 > 76.9 µM, Cc1nc(C)c(C(=O)C2=C(O)C(=O)N(CCCN(C)C)C2c2ccco2)s1 (stereo not drawn) > 76.9 µM, O=C(CC1OC(=O)c2ccccc21)Nc1ccccc1N1CCOCC1 (stereo not drawn) > 76.9 µM, Cc1cnc(NC(=O)CSc2nnc(Cc3ccccc3)n2C)s1 > 76.9 µM, CCOc1ccc(-n2c(=O)cc(N3CCN(c4ccccc4)CC3)[nH]c2=O)cc1 > 76.9 µM, CCOC(=O)CSc1nnc(-c2ccco2)n1-c1ccc(C)cc1 > 76.9 µM, O=S(=O)(c1cccs1)N1CCN(c2ccccn2)CC1 > 76.9 µM, CC1CCCCN1C(=O)Cc1ccc(F)cc1 (stereo not drawn) > 76.9 µM, COc1ccc(NC(=O)Nc2cccs2)cc1OC > 76.9 µM, COc1cccc(Cn2c(Oc3cccc(C)c3)nc3c2c(=O)n(C)c(=O)n3C)c1 > 76.9 µM, O=C(O)C12CC3CC(C1)CC(n1cnc(Cl)n1)(C3)C2 > 76.9 µM, OC(c1cccc(OCc2ccccc2)c1)c1nnc(-c2ccccc2)o1 (stereo not drawn) > 76.9 µM, CCCS(=O)(=O)c1c(S(=O)(=O)CCC)c2cc(CC)ccn2c1C(=O)OC > 76.9 µM, CCOc1ccc(Cn2c(=O)oc3ccc(C)cc32)cc1OC > 76.9 µM, COc1cc2c(cc1OC)-c1cc(Nc3ccc4c(c3)OCCO4)nc(=O)n1CC2 > 76.9 µM, CCOC(=O)C1CCN(CCC(=O)Nc2cccc(Cl)c2C)CC1 > 76.9 µM, CCOC(=O)N1CCN(S(=O)(=O)c2ccc(OC)c(Cl)c2)CC1 > 76.9 µM
